# Data as given in PubChem BioAssay AID686970 (National Center for Advancing Translational Sciences (NCATS), 2013).
# The campaign covered roughly 360,000 compounds. About 6,000 (1.7%) were called active. The inconclusive results got no clear call from the source; some entries with a clear call stand among them for comparison. The call rests on the fitted dose curve; in most records, active means well fitted cell-killing curve with a large enough effect; inconclusive means small, poorly fitted or top-dose-only effect, or effect the other way; inactive means flat fitted curve, though single readings scatter. Potencies of inconclusive entries are left out as doubtful fits.
# Assay: qHTS for induction of synthetic lethality in tumor cells producing 2HG: qHTS for the HT-1080-NT fibrosarcoma cell line;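 further: NT is the 2HG producing partner of a matched IDH1 knockdown line; nearly all actives have a fitted effect of over 55% in size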;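 on activity, negative = less viability: 0% = DMSO-treated cells and -100% = media-only wells without cells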
# Conditions: HT-1080-NT fibrosarcoma viability, CellTiter-Glo ATP luminescence, 48 h; activity, negative = less viability: at 46.1 µM (top of the series) unless noted
# Summary of the method: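 Toxicity toward the 2HG-producing NT line was scored as %Activity, normalised to DMSO and no-cell wells, from CellTiter-Glo luminescence after 48 hours' treatment.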
# Potency means the concentration at half of the fitted maximal effect; tags describe the fitted curve by direction and shape.
Compound,Potency,"activity, negative = less viability"
NS(=O)(=O)c1ccc(CCNC(=O)c2ccc(Cl)nc2)cc1,inactive,
CC(C)=C[C@@H]1C[C@H](C)[C@H]2CC[C@H](C)c3c(O[C@@H]4O[C@@H](C)[C@@H](O)[C@@H](O)[C@@H]4O)c(O)c(C)c1c32,"inconclusive [cytotoxic, single point]",
Cc1ccc(N=Nc2ccc3ccccc3c2O)cc1,,inconclusive: -31% [cytotoxic]
CN1CCN(S(=O)(=O)c2ccc(NC(=O)c3csc4ccccc34)cc2)CC1,"inconclusive [cytotoxic, single point]",
CCCn1c(SCC(=O)N2c3ccccc3CCc3ccccc32)nc2c1c(=O)n(C)c(=O)n2C,inactive,
COc1ccc(NC(=S)NC2CC3CCC2C3)c(OC)c1 (stereo not given),inactive,
Cc1noc(C)c1CSc1nc2[nH]ncc2c(=O)n1-c1ccccc1,"inconclusive [cytotoxic, full curve]",
Cc1ccc(-n2nc3c(N4CCC(C(=O)NCCc5cccs5)CC4)nnc(C)c3c2C)cc1,"inconclusive [cytotoxic, single point]",
Cc1ccc(-c2nc(CSCC(=O)NC3CCN(Cc4ccccc4)CC3)c(C)o2)cc1,"inconclusive [cytotoxic, partial curve]",
CCCCOc1ccc(C(=O)NCC(=O)N2CC=C(c3ccccc3)CC2)cc1,inactive,
CCc1cc2c(=O)c(-c3cnn(-c4ccccc4)c3)c(C)oc2c(CN2CCCCC2)c1O,"inconclusive [cytotoxic, single point]",
Cc1ccc(C2(CCNCc3ccc(N(C)C)cc3)CCOC(C(C)C)C2)cc1 (stereo not given),active: 23.1 µM,
Cn1nccc1C(=O)N/N=C/c1c(O)ccc2ccccc12,"inconclusive [cytotoxic, full curve]",
COc1cc(C2c3c(n[nH]c3C)C(=O)N2c2ccc(C)cc2)ccc1O (stereo not given),"inconclusive [cytotoxic, single point]",
CCOc1ccc(S(=O)(=O)NCCc2ccccn2)cc1,inactive,
c1cn2cc(-c3ccc(CN4CCOCC4)cc3)ccc2n1,"inconclusive [rising, single point]",
COc1ccccc1C(NC(=O)C1CCN(CCOc2ccc(Cl)cc2Cl)CC1)c1ccccn1 (stereo not given),"inconclusive [cytotoxic, single point]",
Cc1ccc(C(=O)N/N=C\c2ccc(-c3ccc(Cl)c(Cl)c3)o2)cn1,active: 16.4 µM,
CN1CCN(c2nc3c(c(=O)[nH]c(=O)n3C)n2Cc2ccc(Cl)cc2)CC1,inactive,
CCOC(=O)c1cc([N+](=O)[O-])sc1N,inactive,
